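48-hour exposure; five concentrations; linearly interpolated endpoints. At the GI50, growth is halved. TGI: total growth inhibition.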

The test concerns NCI-H322M lung. Briefly: NCI tumour cell line growth inhibition, 48 h.
On to `CCC(C)N1CN(c2ccccc2)C2(CCN(CCCC3(c4ccc(F)cc4)OCCO3)CC2)C1=O` (centres undefined), for which the TGI was determined as 33.2 µM. As to `N=C1C=C(N)C(=O)c2ccccc21`, the GI50 is 1.74 µM and the TGI was 3.17 µM. As for `Cc1nc(-n2nc(-c3ccccc3)cc2-c2ccccc2)sc1C(=O)CC(=O)C(=O)Nc1ccc(O)cc1`, the TGI was > 100 µM. Same read-out and setting: in the case of `Cc1ccc(S(=O)(=O)NC(=O)NC(CC(=O)O)C(=O)O)cc1` (centres undefined) it was > 100 µM; in that of `C[C@H]1CC[C@@H]2[C@@H](C)[C@H]3[C@H](C[C@H]4[C@@H]5CC=C6C[C@@H](O)CC[C@]6(C)[C@H]5CC[C@]34C)N2C1`, > 100 µM; in that of `Nc1c(C(=O)O)nnc2cc(Cl)ccc12`, > 100 µM.

Compound `CC(C)(C)CC(C)(C)NCC(O)COc1ccc(C(C)(C)c2ccc(OCC(O)CNC(C)(C)CC(C)(C)C)cc2)cc1` (centres undefined) showed a TGI of 2.73 µM. Same read-out and setting: the same measure for `COC(=O)C(/C(=N\O)C(=O)Nc1ccc(Br)cc1)c1nc2ccccc2[nH]c1=O` (centres undefined): > 100 µM.

Consider `CN(C)CCOc1ccc2c(c1)C(=O)/C(=C\c1ncc([N+](=O)[O-])n1C)C2`, for which the GI50 is 0.476 µM and the TGI is 1.89 µM. For the compound `C#C[C@@H](CCCC)OC(=O)N[C@H](C)c1ccccc1`, the TGI is > 100 µM. As to `O=S(=O)(Nc1ccc(Cl)c(Cl)c1)c1ccc(-c2cnc(C3CC3)o2)cc1`, the GI50 is 4.66 µM and the TGI is 27.3 µM. On to `CC(C)=CCC[C@@H](C)C1=C(O)C(Nc2ccccc2)=C(C)C(=O)C1=O`, for which the TGI was > 100 µM. The same measure, in the same setting: in the case of `COC(=O)C(CNC(=O)/C=C/c1ccc(OC(C)=O)c(OC(C)=O)c1)NC(=O)/C=C/c1ccc(OC(C)=O)c(OC(C)=O)c1` (centres undefined) it was > 100 µM. As to `Cc1cc2nc(-c3ccc(O)c(O)c3)n(Cc3ccc(O)c(O)c3)c2cc1C`, the GI50 was 30.4 µM and the TGI is > 100 µM. With `COc1ccc(/N=N/C(=NNC(=O)c2ccc(C)cc2)c2ccc(N(C)C)cc2)cc1`, the TGI was > 100 µM.

The compound `C=CCO[C@H]1CC[C@@]2(C)C(CC[C@]3(C)C2CC=C2[C@@H]4[C@@H](C)C(C)CC[C@]4(C(=O)O)CCC23C)C1(C)C` (some centres undefined) showed a TGI of 31.4 µM. Still for that read-out and setting: in the case of `Cc1nccn1S(=O)(=O)c1ccc(Cl)cc1` it was > 100 µM; in that of `Nc1ccn(C2CC3OCC3O2)c(=O)n1` (centres undefined), > 100 µM. The same measure, in the same setting: the same measure for `Nc1ccc(C(=O)O)cc1`: > 100 µM.

`Cc1nc(-n2nc(-c3ccccc3)cc2-c2ccccc2)sc1C(=O)/C=C/c1cccc([N+](=O)[O-])c1` displayed a TGI of 63.6 µM. With `Cn1c(-c2c(C3=CC(=O)N(c4ccccc4)C3=O)c3ccccc3n2C)cc2ccccc21`, the TGI is > 100 µM. With `Cc1cn2cc(-c3ccc4c(c3)CC(=O)N4)nc2s1`, the GI50 is > 100 µM and the TGI is > 100 µM. Consider `CCCCOP1(=O)CC(C)=C(Cl)C(C)(OC)C1` (centres undefined), for which the TGI was > 100 µM. Take `NS(=O)(=O)c1ccc(NCc2nc3ccccc3[nH]2)cc1`: the TGI was > 100 µM. Same read-out and setting: in the case of `CCOC(=O)Cc1cc(=O)[nH]c(-n2[nH]c(C)c(CCO)c2=O)n1` it was > 100 µM. The same measure, in the same setting: in the case of `Fc1ccc2c(c1)nc1n2C(c2c(F)cccc2F)SC1` (centres undefined) it was > 100 µM. On to `CCCCCCCCc1cc(O)ccc1O`, for which the GI50 was 18.3 µM and the TGI worked out at 41.2 µM.

As to `CCN(CCC#N)C(=O)Nc1ccccc1`, the TGI is > 100 µM.

As to `Cc1ccc([N+]2=NC(c3ccccc3)=NN(c3ccccc3)C2)cc1`, the TGI was > 100 µM. On the same count and under the same terms, the same measure for `Nc1ncc2c(n1)-c1ccccc1OC2`: > 100 µM. On the same count and under the same terms, the same measure for `C=CCCC(=O)CC(=O)OCc1ccccc1`: > 100 µM.

Take `COc1cc2c(=O)n(CC3CCCCC3)c3c4cc[nH]c4ncc3c2cc1OC`: the GI50 is 6.87 µM and the TGI was > 50 µM. Consider `COC(=O)C#CC(N)=O`, for which the TGI is > 100 µM. In the case of `CC(=O)/C(=C/N1CCN(C(=O)c2ccco2)C1=S)C(=O)c1ccccc1`, the GI50 was 27.9 µM and the TGI is > 50 µM. For the compound `C[C@@H](C[C@H](CCO)c1ccccc1)c1ccc2ccccc2c1`, the GI50 is 1.62 µM and the TGI amounted to 2.99 µM. In the case of `CC1=C(C(=O)NCc2ccccc2)C(c2ccco2)C(C(=O)NCc2ccccc2)=C(C)N1`, the TGI was > 100 µM. On the same count and under the same terms, in the case of `CC1C(c2ccccc2)NC(c2ccccc2)CC1(N)C#N` (centres undefined) it was > 100 µM; in that of `CC(C)=C=CP(=O)(O)c1ccccc1`, > 100 µM. For `Cc1c2ccccc2c(C)n2c1nc1cc(Cl)c(Cl)cc12`, the GI50 is > 100 µM and the TGI is > 100 µM. For `ClC1=C(Cl)C2OC3C=CCC3OC2C(Cl)=C1Cl` (centres undefined), the TGI is > 100 µM. As to `Cc1c(Cl)cccc1NC(=O)C(=O)c1c(O)c2ccc(O)cc2oc1=O`, the TGI was > 100 µM. Still for that read-out and setting: in the case of `COC1CC(n2cc(F)c(N)nc2=O)OC1CO` (centres undefined) it was > 100 µM; in that of `CCOc1ccccc1N=Cc1c2ccccc2cc2ccccc12`, > 77.7 µM. The same measure, in the same setting: the same measure for `Cc1ccc2c(c1)Nc1ccccc1P2(=O)O`: > 100 µM; for `COc1cc(CCc2ccncc2)cc(OC)c1OC`: > 100 µM.

With `COC(=O)[C@@H](C)C[C@H](Cc1ccccc1)NC(=O)c1csc([C@@H](C[C@H](C(C)C)N(C)C(=O)[C@@H](NC(=O)[C@H]2CCCCN2C)C(C(F)(F)F)C(F)(F)F)OC(C)=O)n1`, the GI50 was 0.0745 µM and the TGI was > 16.7 µM. Consider `NC(=S)NS(=O)(=O)c1ccc(Cl)cc1`, for which the TGI is > 100 µM. Still for that read-out and setting: the same measure for `CC1=CC(=O)N2C(OC[C@@H]2c2ccccc2)O1` (some centres undefined): > 100 µM; for `CN1C/C(=C\c2cccs2)C(=O)/C(=C/c2cccs2)C1`: 68.2 µM. `CN1CCN(c2nc3cc(F)ccc3n3cccc23)CC1`: the TGI is > 100 µM.

As to `O=C(Cn1c(=O)oc2ccc(C(=O)c3cccc(Cl)c3)cc21)c1ccccc1`, the TGI was > 100 µM.

Consider `Cc1nc2sc(C(=O)Nc3ccccc3)c(N)c2cc1C(=O)c1ccccc1`, for which the GI50 is 3.89 µM and the TGI was > 50 µM. The corresponding values for `N#Cc1cc2c(cc1Cl)SC(=Nc1ccccc1)N(S(=O)(=O)c1ccc(Br)s1)S2(=O)=O` are 26.1 µM and 62.5 µM. With `O=C1Nc2ccccc2SC1=C(C(=O)c1ccccc1)C(=O)c1ccccc1`, the TGI is > 100 µM.

As to `Cc1ccc(C)c(NC(=O)C(=O)Nn2c(=S)[nH]c3ccccc3c2=O)c1`, the TGI is > 100 µM. On to `CSc1c(C)n([O-])c2cc(Cl)c(Cl)cc2[n+]1=O`, for which the TGI worked out at 65.3 µM. Same read-out and setting: in the case of `CCN(CC)CCNc1ccc([N+](=O)[O-])c2nc3ccc(OC)cc3c(N)c12` it was 2.72 µM; in that of `CCc1n[nH]c(=O)[nH]1`, > 100 µM; in that of `O=C1C(=Cc2ccc(F)cc2)C(=O)c2ccccc21`, > 100 µM. The same measure, in the same setting: in the case of `Cc1ccsc1/C=N/Nc1cc(C)c2ccccc2n1` it was 48.9 µM; in that of `COc1cc2nc(-c3cccs3)nc(N3C(c4cc(OC)c(OC)c(OC)c4)=NNC(=O)c4ccccc43)c2cc1OC`, 73.2 µM. As for `CC(C)(CO)CNc1cc(Cl)nc(N)n1`, the TGI is > 100 µM. Same read-out and setting: the same measure for `COC(=O)/C=C\C(C#N)(C#N)N=Cc1ccc(Br)cc1`: 33.8 µM.

As to `Cn1cc(-c2csc(-c3cn(C(=O)OC(C)(C)C)c4ccccc34)n2)c2cccnc21`, the GI50 was 14.3 µM and the TGI stood at 38.7 µM.

For `CCCC(=O)OC(OC(=O)CCC)c1ccc([N+](=O)[O-])o1`, the TGI is > 100 µM.

(Values after PubChem BioAssay (NCI).)
